These results are taken from paper PMC10668032.

The other results are listed elsewhere or left out. At the low end of the ranking, values are background and their order means little.

This test addresses SIX1-Q177R homeodomain (UniProt Q15475). Briefly: universal protein binding microarray. As to conditions: Universal all-10-mer PBM (8x60K, AMADID 030236), 300 nM GST-tagged protein, Alexa Fluor 488 anti-GST; buffer, salt, pH and temperature not stated; high values mean tight binding; most listed sequences are background and not binding sites; double strand, one strand shown.
TGAAAGCA: the binding signal is -0.0365 E-score.

Consider AGTGTACC, for which the binding signal came out at 0.414 E-score.

Turning to GTAGCGAA, the binding signal was -0.121 E-score.

As to GAACGCGA, the binding signal was -0.0752 E-score.

For the sequence CCATACTA, the binding signal is 0.0396 E-score.

CGGGAGGA: the binding signal was -0.176 E-score.

As for ATACTGGA, the binding signal is -0.0122 E-score.

As for AAGACGCC, the binding signal came to 0.0808 E-score.

On to CGGACCCG, for which the binding signal is 0.00687 E-score.

In the case of ACAAACTG, the binding signal was -0.315 E-score.

For CGACTGAG, the binding signal is -0.073 E-score.

With CGTCGGGA, the binding signal worked out at 0.0246 E-score.

On to AGTTAGGC, for which the binding signal is -0.137 E-score.

For the sequence CCCCAATA, the binding signal amounted to 0.153 E-score.

TAAAGCCA: the binding signal is -0.319 E-score.

As for ACCTTATC, the binding signal stood at 0.0502 E-score.

On to CGTCTTCA, for which the binding signal was determined as 0.0594 E-score.

For the sequence CTAAACCC, the binding signal is 0.0848 E-score.

In the case of CCAATGAG, the binding signal was -0.0461 E-score.

Regarding ATCCTGCG, the binding signal was -0.174 E-score.

Consider GTTCCGCA, for which the binding signal came to 0.0899 E-score.

On to CTGTTGAC, for which the binding signal was -0.0966 E-score.

As to ACCAATCG, the binding signal turned out to be 0.0956 E-score.

Turning to AACACGCA, the binding signal was 0.396 E-score.

Take ATATACTC: the binding signal was determined as 0.0205 E-score.

On to AAGCCTGA, for which the binding signal was -0.267 E-score.

For AGCCTGCC, the binding signal was -0.081 E-score.

As to AGCAATGG, the binding signal was -0.153 E-score.

As for CGACACTC, the binding signal was found to be 0.437 E-score.

Consider CAACCGCC, for which the binding signal amounted to 0.0311 E-score.

As to TACACTAA, the binding signal came out at 0.381 E-score.

Take ATTGTAAA: the binding signal was -0.235 E-score.

Take ACCAAGGT: the binding signal was 0.0377 E-score.

For the sequence GTAATGAC, the binding signal turned out to be 0.00341 E-score.

For the sequence ATTTTTGA, the binding signal came to 0.00326 E-score.

Regarding AATAGCAT, the binding signal was -0.182 E-score.

For the sequence ACACTTAC, the binding signal stood at 0.378 E-score.

On to GTGGTTTA, for which the binding signal is -0.0286 E-score.

Turning to AGGGGCGG, the binding signal turned out to be 0.113 E-score.

Consider GGAACCAC, for which the binding signal amounted to 0.0371 E-score.

Consider CTTCTGGC, for which the binding signal was -0.0493 E-score.

On to TAACATCA, for which the binding signal was -0.0745 E-score.

For the sequence CGAAGGGA, the binding signal was determined as 0.0617 E-score.

Take GTCGACAA: the binding signal was -0.123 E-score.

Take ACGTCTAT: the binding signal is 0.013 E-score.

Regarding GTCACACA, the binding signal was 0.215 E-score.

As to AATCAACT, the binding signal was -0.202 E-score.

With CCCGGCAA, the binding signal came to 0.108 E-score.

In the case of CCGGGGAC, the binding signal is -0.00758 E-score.

Regarding AAACACCC, the binding signal was found to be 0.45 E-score.

On to ACTCTCGA, for which the binding signal came to 0.125 E-score.

As for ACAACTCT, the binding signal was -0.16 E-score.

Take AACGCGGG: the binding signal was determined as 0.144 E-score.

For the sequence AGCACTGC, the binding signal was -0.0354 E-score.

For the sequence AACTGCCC, the binding signal was determined as 0.00411 E-score.

As for AATCGAGT, the binding signal was -0.068 E-score.

As to TAAGGGCA, the binding signal was -0.0317 E-score.

Take AAGCATGC: the binding signal is -0.139 E-score.

Turning to CAGGGTTA, the binding signal was 0.0745 E-score.

CCGCTAGG: the binding signal is -0.0497 E-score.

In the case of GCCTTCCA, the binding signal is -0.187 E-score.

On to AGCCACGC, for which the binding signal is -0.105 E-score.

GTGCTTTA: the binding signal is -0.0324 E-score.

ACTGCAAG: the binding signal was -0.00106 E-score.

Consider ACCCGTGC, for which the binding signal was determined as 0.162 E-score.

Regarding TAACGTCA, the binding signal was -0.217 E-score.

Turning to CGATACGA, the binding signal is -0.0117 E-score.

With CTCAGGGC, the binding signal was -0.188 E-score.

With CCAGAGAA, the binding signal is -0.217 E-score.

ACGGGTTA: the binding signal was 0.0558 E-score.

For AAATGCTG, the binding signal is 0.0353 E-score.

For the sequence TAGGTGCA, the binding signal came to 0.117 E-score.

For AGAACAGA, the binding signal was -0.246 E-score.

For the sequence ATTAGGAG, the binding signal is 0.0704 E-score.

CGGCAGGA: the binding signal is -0.137 E-score.

As to AGTACAAA, the binding signal is -0.107 E-score.

For the sequence ACAGCGAA, the binding signal is -0.19 E-score.

Regarding ACAAGGGT, the binding signal was 0.21 E-score.

For the sequence CGCATCAG, the binding signal is 0.0874 E-score.

Turning to CTAAGTAG, the binding signal was -0.00419 E-score.

On to AGTCAGGG, for which the binding signal is -0.00696 E-score.

Consider AACGGCCG, for which the binding signal is -0.133 E-score.

Consider CAGATACA, for which the binding signal is 0.313 E-score.

For GGCTATCA, the binding signal was -0.288 E-score.

Turning to CCCGAATA, the binding signal was 0.012 E-score.

Consider AGGCCTCC, for which the binding signal is -0.208 E-score.

For the sequence GGTGGGAC, the binding signal was 0.0648 E-score.

Consider TCCTTGAA, for which the binding signal is -0.0907 E-score.

Turning to ACAATGCG, the binding signal was found to be 0.0849 E-score.

As to AGATGTGG, the binding signal was -0.0894 E-score.

With AGTTGGAT, the binding signal stood at 0.0461 E-score.

For ATTCCAGA, the binding signal was -0.0893 E-score.

CACAACAC: the binding signal was 0.38 E-score.

As for AACCCTTC, the binding signal is 0.0433 E-score.

Consider CCAGAATA, for which the binding signal is 0.041 E-score.

On to GCTGCGAA, for which the binding signal is -0.153 E-score.

Regarding AAGGAGGG, the binding signal worked out at 0.0083 E-score.

For AGGAGTGC, the binding signal was found to be 0.0976 E-score.

In the case of GACGGATC, the binding signal is -0.138 E-score.

Consider GAAAATGC, for which the binding signal was -0.254 E-score.

As for CCGGTTGC, the binding signal is -0.0158 E-score.

GCACGGAA: the binding signal was -0.0728 E-score.

As to TCTAACCA, the binding signal was -0.167 E-score.

In the case of TCGTACAA, the binding signal is -0.218 E-score.

Turning to GCTATCGA, the binding signal is -0.15 E-score.

With ACCCCAAC, the binding signal came to 0.237 E-score.

As to AGTAACTC, the binding signal worked out at 0.0488 E-score.

CAAGTAGA: the binding signal was -0.0216 E-score.

With ACCGGTAT, the binding signal turned out to be 0.212 E-score.

For the sequence AGATAATA, the binding signal is -0.252 E-score.

Regarding CGTAGTAC, the binding signal is -0.0308 E-score.

For the sequence AACAAGCA, the binding signal is -0.0901 E-score.

CAAAGATG: the binding signal was -0.186 E-score.

For GAATATAA, the binding signal was -0.256 E-score.

For ACCCGCTA, the binding signal stood at 0.104 E-score.

As for CTTGGACC, the binding signal was -0.101 E-score.

As to GCCTTTCA, the binding signal is -0.258 E-score.

For the sequence ATTCAACC, the binding signal was -0.0906 E-score.

Take ATATGGAC: the binding signal was 0.0835 E-score.

For ACCGCACT, the binding signal was determined as 0.12 E-score.

On to ACTTCCGG, for which the binding signal was determined as 0.00831 E-score.

Regarding CAGGATCC, the binding signal is 0.0583 E-score.

For GATGCATC, the binding signal is -0.161 E-score.

On to GGCCAGGA, for which the binding signal was -0.205 E-score.

With CAGTTTGG, the binding signal is -0.0483 E-score.

With CGGAATTA, the binding signal is -0.032 E-score.

Turning to TAACCCGA, the binding signal was found to be 0.169 E-score.

Consider GATGTATA, for which the binding signal was determined as 0.103 E-score.

Turning to AGCCTCGC, the binding signal is -0.116 E-score.

For AATAGAGG, the binding signal was -0.0116 E-score.

In the case of GGTTCGAC, the binding signal is 0.116 E-score.

Take TCGGCACA: the binding signal was determined as 0.217 E-score.

In the case of ACGGAAGC, the binding signal was -0.0735 E-score.

Take AAAGCGTT: the binding signal is -0.187 E-score.

Regarding CCTCTCCC, the binding signal was -0.0619 E-score.

On to CTTGACAC, for which the binding signal is 0.429 E-score.

As to ATCAACTG, the binding signal was -0.079 E-score.

For the sequence GCTAATGA, the binding signal was -0.151 E-score.

As for ACTAAGAC, the binding signal came to 0.111 E-score.

Regarding CCCCTCTA, the binding signal came out at 0.251 E-score.

With AAATAAGC, the binding signal was -0.261 E-score.

Regarding GATGAGAC, the binding signal was found to be 0.117 E-score.

Consider AACAAGGC, for which the binding signal is -0.132 E-score.

As to AAATTATG, the binding signal was -0.219 E-score.

For CTAGCCCA, the binding signal is -0.0749 E-score.

For the sequence CCGTTTTC, the binding signal was -0.0147 E-score.

Take CTCGAGCA: the binding signal amounted to 0.0105 E-score.

For the sequence CAGAAATC, the binding signal was -0.271 E-score.

Consider GGGTAGGA, for which the binding signal came out at 0.213 E-score.

Consider ACTGCCGG, for which the binding signal was -0.0774 E-score.

Consider ACCCCGGT, for which the binding signal worked out at 0.298 E-score.

As for AAGCATCA, the binding signal is -0.116 E-score.

Regarding GGATGAGA, the binding signal was -0.0756 E-score.

Consider GCATGACC, for which the binding signal is -0.0216 E-score.

Turning to ACTGTGCA, the binding signal worked out at 0.195 E-score.

Turning to GTAATAAC, the binding signal stood at 0.0545 E-score.

Turning to ACTACTGA, the binding signal was -0.106 E-score.

In the case of ACAATGGC, the binding signal was -0.122 E-score.

On to CGGCTGAG, for which the binding signal was -0.151 E-score.

As for GAAGGGAC, the binding signal stood at 0.0983 E-score.

GTCTGGAA: the binding signal is -0.0947 E-score.

With ACAGATAT, the binding signal was found to be 0.0386 E-score.

For CCGTGGAC, the binding signal is -0.0853 E-score.

As for TGACAGAA, the binding signal is -0.264 E-score.

ATGCAGAC: the binding signal was -0.0867 E-score.

In the case of TCAGTGCA, the binding signal is -0.0296 E-score.

As to GACGCCCC, the binding signal is 0.182 E-score.

For AACGCTGC, the binding signal was 0.0197 E-score.

Take ATCACGAC: the binding signal is 0.00187 E-score.

As for GAGCCACA, the binding signal is -0.0195 E-score.

As for CAACCAGA, the binding signal was -0.172 E-score.

Regarding AAGCTTAG, the binding signal was -0.0191 E-score.
